# Data: PubChem BioAssay AID1347165 (National Center for Advancing Translational Sciences (NCATS), 2019)
# The campaign covered roughly 220,000 compounds. About 5,700 (2.6%) were called active. Inconclusive means that the source gave no clear call. Such entries were picked first, then a sample of the others. The call rests on the fitted dose curve; in most records, active means well fitted inhibition curve with a large enough effect; inconclusive means small, poorly fitted or top-dose-only effect; inactive means no such curve, though single readings can be large or run the other way. Potencies beside an inconclusive call are fits to weak or partial responses and may not hold up.
# Target: Lysine-specific demethylase 5B (Homo sapiens) (UniProt Q9UGL1)
# Chain of UniProt Q9UGL1 (Q9UGL1 whole entry, looked up): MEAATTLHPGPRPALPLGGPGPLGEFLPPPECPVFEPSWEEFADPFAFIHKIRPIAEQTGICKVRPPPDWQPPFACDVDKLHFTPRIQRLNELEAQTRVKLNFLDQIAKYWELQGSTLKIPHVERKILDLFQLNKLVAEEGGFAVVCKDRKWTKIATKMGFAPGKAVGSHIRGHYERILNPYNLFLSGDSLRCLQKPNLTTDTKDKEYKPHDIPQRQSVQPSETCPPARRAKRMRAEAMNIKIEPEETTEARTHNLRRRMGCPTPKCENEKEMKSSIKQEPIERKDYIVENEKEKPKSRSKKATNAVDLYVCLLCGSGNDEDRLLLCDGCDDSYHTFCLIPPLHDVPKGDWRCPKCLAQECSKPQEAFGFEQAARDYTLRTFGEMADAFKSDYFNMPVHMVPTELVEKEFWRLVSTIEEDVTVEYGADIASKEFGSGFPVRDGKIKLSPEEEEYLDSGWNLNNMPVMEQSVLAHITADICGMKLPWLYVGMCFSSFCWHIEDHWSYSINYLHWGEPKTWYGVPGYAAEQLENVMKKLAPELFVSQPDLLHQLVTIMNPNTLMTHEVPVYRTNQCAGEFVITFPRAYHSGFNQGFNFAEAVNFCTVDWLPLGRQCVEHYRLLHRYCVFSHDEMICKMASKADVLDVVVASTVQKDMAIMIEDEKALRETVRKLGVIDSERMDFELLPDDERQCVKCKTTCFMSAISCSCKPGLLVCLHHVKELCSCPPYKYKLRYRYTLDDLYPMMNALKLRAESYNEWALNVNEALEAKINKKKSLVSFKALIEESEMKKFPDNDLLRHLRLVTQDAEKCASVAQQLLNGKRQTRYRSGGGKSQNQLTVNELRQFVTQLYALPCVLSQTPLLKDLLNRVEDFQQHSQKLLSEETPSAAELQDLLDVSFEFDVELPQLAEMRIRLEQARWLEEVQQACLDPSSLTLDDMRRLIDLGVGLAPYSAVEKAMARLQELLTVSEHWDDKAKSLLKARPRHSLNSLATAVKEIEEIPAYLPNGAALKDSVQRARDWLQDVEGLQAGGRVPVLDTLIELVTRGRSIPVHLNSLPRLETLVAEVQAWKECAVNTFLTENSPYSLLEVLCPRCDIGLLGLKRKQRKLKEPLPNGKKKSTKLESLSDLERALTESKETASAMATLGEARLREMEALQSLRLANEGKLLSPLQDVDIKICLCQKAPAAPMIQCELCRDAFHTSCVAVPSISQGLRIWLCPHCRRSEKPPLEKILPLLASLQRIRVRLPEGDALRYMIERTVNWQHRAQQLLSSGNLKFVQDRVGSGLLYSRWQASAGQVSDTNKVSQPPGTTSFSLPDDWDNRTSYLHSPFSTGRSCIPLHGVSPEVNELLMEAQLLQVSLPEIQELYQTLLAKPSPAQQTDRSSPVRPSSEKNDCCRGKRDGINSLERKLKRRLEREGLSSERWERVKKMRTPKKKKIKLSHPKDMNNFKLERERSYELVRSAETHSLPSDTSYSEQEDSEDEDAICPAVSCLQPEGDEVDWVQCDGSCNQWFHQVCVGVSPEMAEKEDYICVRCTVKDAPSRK
# Test: Primary screen for KDM5B Histone Demethylases FDH-coupled qHTS; further: nearly all actives have a fitted effect of over 70% in size
# Settings: FDH-coupled NADH fluorescence (FDH is formaldehyde dehydrogenase); series mostly up to 57.7 µM
# Procedure, shortened: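 KDM5BΔAP (200 nM final) in 50 mM HEPES pH 7.5, 0.01% Tween-20 was preincubated 10 min at RT with compound over a concentration range. Substrate mix (H3K4me3 12.5 µM, α-KG 25 µM, Fe²⁺, ascorbate, NAD⁺, FDH) was added, and NADH fluorescence change over 30 min gave dose-response curves.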
# Potency means the concentration at half of the fitted maximal effect; tags describe the fitted curve by direction and shape.
row,Compound,Potency
1,S=c1[nH]c(-c2cccc(Cl)c2)cs1,"inconclusive: 17.8 µM [inhibitor, partial curve, poor fit]"
2,COCC(=O)N1c2nc(-c3ccco3)nn2C2(CCCCC2)[C@@H]2CCCC[C@@H]21,"inconclusive: 35.5 µM [inhibitor, single point]"
3,O=C(NCC(O)c1ccc(F)cc1F)c1ccc(=O)[nH]c1 (stereo unspecified),inactive
4,CC(NC(=O)Cc1cccc(F)c1)C(=O)N1CCN(c2ccccn2)CC1 (stereo unspecified),"inconclusive: 25.1 µM [inhibitor, partial curve, poor fit]"
5,CCn1nc(C(=O)OC(C)C(=O)Nc2cccc3ccccc23)c2ccccc2c1=O (stereo unspecified),inactive
6,Cc1ccc2[nH]c(C)c(C(O)CN3CCC(Cc4ccccc4)CC3)c2c1 (stereo unspecified),"inconclusive: 39.8 µM [inhibitor, single point]"
7,C/C(=N\NC(N)=S)c1ccc(Br)cc1,"inconclusive: 2 µM [inhibitor, full curve, poor fit]"
8,COc1ccc(-c2cc3c(=O)n(CCNC(=O)c4ccc(N(C)C)cc4)ccn3n2)cc1,active: 25.1 µM
9,CC1=C(C(=O)Nc2cccc(C(F)(F)F)c2)C(c2ccccc2)n2ncnc2N1 (stereo unspecified),inactive
10,COCCSc1ccc2c(c1)OCCCO2,inactive
11,O=C(Nc1ccc2oc(-c3ccc(Cl)cc3)nc2c1)c1ccccc1,inactive
12,O=C(c1cccs1)N1CCC2(CC1)CN(C1CCC1)CC2CO (stereo unspecified),"inconclusive: 10 µM [inhibitor, partial curve, poor fit]"
13,Cc1ccc(C)c(/C=C/c2onc(C)c2S(=O)(=O)N2CCCC(C(=O)NC3CCCC3)C2)c1 (stereo unspecified),inactive
14,O=S(=O)(Nc1ccc(Cl)cc1)c1cccc(S(=O)(=O)c2ccc(Cl)c(Cl)c2)c1,inactive
15,O=C(NCc1cc2n(n1)CCN(C1CCCCC1)C2)c1cnn2ccccc12,"inconclusive: 28.2 µM [inhibitor, partial curve, poor fit]"
16,COc1ccc(OC)c(NC(=O)Cn2c(N3CCc4ccccc4C3)nc(C)cc2=O)c1,active: 28.2 µM
17,CCn1c(SCC(N)=O)nc2sc3c(c2c1=O)CCN(C)C3,"inconclusive: 28.2 µM [inhibitor, partial curve, poor fit]"
18,CC(C)[C@@H]1CN(C(=O)c2nc3ccccc3[nH]c2=O)C[C@H]1NS(C)(=O)=O,"inconclusive: 22.4 µM [inhibitor, partial curve, poor fit]"
19,Cc1ccc(-c2cc(C(=O)O)c3cccc(Cl)c3n2)cc1,"inconclusive: 28.2 µM [inhibitor, partial curve, poor fit]"
20,C/C(=N\N=C(N)N)C1CCCCCCCCCCC1,"inconclusive: 31.6 µM [inhibitor, single point]"
21,Cc1cccc(NC(=O)c2ccc(N(C)C)cc2)c1C,inactive
22,CCOc1ccccc1NC(=O)Cn1ccn2nc3c(c2c1=O)CCCC3,inactive
23,CCCN1CCN(C(=O)c2ccc(-c3ccc(N4CCCCC4)nc3)cc2)CC1,active: 25.1 µM
24,CO[C@@H]1C[C@H]2C(=O)Nc3ccc(-c4ccccc4F)cc3C(=O)N2C1,inactive

row,Compound,Potency
1,O=c1oc2cc(O)ccc2cc1-c1nnc(Nc2cccc(Cl)c2)s1,"inconclusive: 31.6 µM [inhibitor, partial curve, poor fit]"
2,Cc1ccc2nc(CO[C@H]3CN(Cc4ncc[nH]4)C[C@H]3F)[nH]c2c1,"inconclusive: 31.6 µM [inhibitor, single point]"
3,Cc1ccc(C)c(N2CCN(CCCNC(=O)Nc3ccc(Cl)cc3)CC2)c1,"inconclusive: 31.6 µM [inhibitor, single point]"
4,O=C(Cc1cccn1-c1cccc(Cl)c1)NCc1ccc(N2CCOCC2)cc1,"inconclusive: 39.8 µM [inhibitor, partial curve, poor fit]"
5,CN1CCN(C(NC(=O)c2cccs2)C(=O)c2ccccc2)CC1 (stereo unspecified),inactive
6,O=C(CN1CCN(Cc2cccs2)CC1)Nc1cccc2nsnc12,inactive
7,CCc1nc(C)c(C(=O)Nc2nn(C)c3cccc(N4CCOC4=O)c23)o1,inactive
8,CN1CC2(CCN(C(=O)CCc3c[nH]c4ccccc34)CC2)CC1C(=O)N1CCOCC1 (stereo unspecified),"inconclusive: 28.2 µM [inhibitor, partial curve, poor fit]"
9,CC(CNC(=O)c1csc(-c2ccsc2)n1)c1ccccc1 (stereo unspecified),inactive
10,Cn1c(Cn2cccn2)nnc1C1CC(NC(=O)c2cnco2)C1 (stereo unspecified),inactive
11,CCc1ccc(NC(=S)NCC(C)(C)N2CCOCC2)cc1,inactive
12,COc1ccccc1N1CCN(CC(O)COc2ccc(C)cc2C(C)(C)C)CC1 (stereo unspecified),"inconclusive: 25.1 µM [inhibitor, single point]"
13,Cc1cccc(Nc2c3c(nc4nncn24)CCC3)c1C,inactive
14,COc1ccc2c(c1)c1c(c(=O)n(-c3ccccc3C)c(=O)n1Cc1c(F)cccc1Cl)n2C,"inconclusive: 25.1 µM [inhibitor, partial curve, poor fit]"
15,CCOC(=O)C1(C)C=C(Nc2ccc(C(=O)O)cc2)C(=O)N1c1ccc(C(=O)O)cc1 (stereo unspecified),"inconclusive: 2 µM [inhibitor, partial curve, poor fit]"
16,C=CCCC(CN1CCCC1)Oc1ncc(F)c(N2CCCC2)n1 (stereo unspecified),"inconclusive: 11.2 µM [inhibitor, partial curve]"
17,CCCc1c(C)nc(Nc2nc(C)c3cc(CC)ccc3n2)[nH]c1=O,inactive
18,Cc1nc2ccccc2n1CCc1nc2c3ccccc3nc(SCc3ccc(F)cc3)n2n1,"inconclusive: 1.12 µM [inhibitor, partial curve, poor fit]"
19,Cc1ccc(-c2nc3ccccc3n2Cc2cccc(F)c2)o1,"inconclusive: 25.1 µM [inhibitor, partial curve, poor fit]"
20,COc1ccccc1CNc1nc2ccccc2nc1NS(=O)(=O)c1cccc(C)c1,inactive
21,c1ccc2c3c(ccc2c1)-c1cccc2cccc(c12)O3,"inconclusive: 2 µM [inhibitor, full curve, poor fit]"
22,Cc1ccc(NC(=O)N[C@H]2C[C@@H](c3nc(-c4ccc5c(c4)OCO5)no3)N(C)C2)cc1,"inconclusive: 31.6 µM [inhibitor, single point]"
23,COc1ccc(Cl)cc1C(=O)N1CCc2nc3cc(-c4ccccc4)[nH]n3c(=O)c2C1,active: 25.1 µM
24,CSc1ccc(CNC23CC4CC(C)(CC(C)(C4)C2)C3)cc1,inactive

row,Compound,Potency
1,CC1=C(C(=O)Nc2ccccc2F)C(c2ccco2)C(C#N)=C(SCC(=O)NC(C)(C)C)N1 (stereo unspecified),"inconclusive: 39.8 µM [inhibitor, single point]"
2,Cc1oc(-c2ccccc2)nc1C(=O)OCC(=O)N1CCCCC1,inactive
3,CCS(=O)(=O)N1C[C@@H](C(=O)N2CCCCCC2)[C@H](c2ccncc2)C1,inactive
4,N#C/C(=C/c1ccc(OC(F)F)cc1)c1nc2ccccc2[nH]1,"inconclusive: 31.6 µM [inhibitor, partial curve, poor fit]"
5,Cc1ccccc1C(=O)NCCc1c[nH]c2ccccc12,inactive
6,CN(CC(=O)O)C(=O)[C@H]1C[C@@](C)(C(=O)O)N(C)[C@H]1c1ccc(Cl)cc1,"inconclusive: 35.5 µM [inhibitor, partial curve, poor fit]"
7,COc1ccccc1N1CCCc2ncc(C(=O)N3CCCC[C@@H]3Cc3ccccc3)cc21,active: 25.1 µM
8,O=C(NC1CCN(c2cc(-c3cccs3)[nH]n2)CC1)c1ccc(F)c(F)c1,inactive
9,CCCN1C(=O)C2(C(=C(O)c3ccc(OCC)cc3)C(=O)C(=O)N2CCOC)c2ccccc21 (stereo unspecified),inactive
10,CC1=C[C@@H](CNS(=O)(=O)c2ccccc2)[C@H](C(C)C)C[C@H]1Cc1nnc(-c2ccncc2)o1,"inconclusive: 39.8 µM [inhibitor, single point]"
11,CCOc1ccc2oc(C(=O)NC(c3ccc(F)cc3)c3nccn3C)c(C)c2c1 (stereo unspecified),"inconclusive: 25.1 µM [inhibitor, partial curve, poor fit]"
12,COc1ccc(CNc2oc(-c3ccc(COc4ccc(OC)cc4)o3)nc2C#N)cc1,"inconclusive: 2.82 µM [inhibitor, full curve, poor fit]"
13,Cc1c(CCC(=O)NCCc2ccc(F)cc2)c(=O)oc2c(C)c(O)ccc12,"inconclusive: 1.78 µM [inhibitor, full curve, poor fit]"
14,CCOC(=O)c1ccc2ncc(C(=O)OCC)c(Nc3cc(C)ccc3OC)c2c1,inactive
15,COc1ccc(COC(=O)C2=C(C)NC3=C(C(=O)CCC3)C2c2ccccc2Br)cc1 (stereo unspecified),"inconclusive: 20 µM [inhibitor, partial curve, poor fit]"
16,CC(C)[C@H](NC(=O)C12CC3CC(CC(C3)C1)C2)C(=O)O,inactive
17,OCC1CN(c2ncccn2)CC12CCN(Cc1cccc(Cl)c1F)CC2 (stereo unspecified),"inconclusive: 28.2 µM [inhibitor, partial curve, poor fit]"
18,Cc1cc(C)c2[nH]c(CSc3nnc(-c4cccc(F)c4)n3C)cc(=O)c2c1,"inconclusive: 12.6 µM [inhibitor, partial curve, poor fit]"
19,Cc1cccc(C)c1NC(=O)CN1C(=O)c2cccc3cccc1c23,"inconclusive: 6.31 µM [inhibitor, partial curve, poor fit]"
20,CC(c1nc(-c2ccccc2)no1)N1CCc2ccccc2C1 (stereo unspecified),inactive
21,O=C(Nc1ccc(-c2nc3ccccc3o2)c(O)c1)c1ccccc1I,inactive
22,CNc1nc2c(s1)C(c1cccc(F)c1)CC(=O)N2 (stereo unspecified),active: 28.2 µM
23,Cc1oc(-c2ccc(C(=O)Nc3ccccc3F)cc2)nc1COc1ccccc1,"inconclusive: 15.8 µM [inhibitor, partial curve, poor fit]"
